Source: PMC10668032
The other results are listed elsewhere or left out. At the low end of the ranking, values are background and their order means little.

The sequences below were run against SIX1 homeodomain (reference allele) (UniProt Q15475) (assay: universal protein binding microarray). Conditions: Universal all-10-mer PBM (8x60K, AMADID 030236), 300 nM GST-tagged protein, Alexa Fluor 488 anti-GST; buffer, salt, pH and temperature not stated; high values mean tight binding; most listed sequences are background and not binding sites; double strand, one strand shown.
AACTGAAT gave a binding signal of -0.22 E-score. CACGGTGA was tested, and the binding signal was 0.0519 E-score. AAGGACGC gave a binding signal of -0.278 E-score. CGACCGTC gave a binding signal of -0.0246 E-score. In the case of TCTTCGCA, the binding signal is reported as -0.114 E-score. ACGTTAAG was tested, and the binding signal was -0.234 E-score. In the case of AACTGTTA, the binding signal is reported as -0.257 E-score. Work on AGCCCACA yielded a binding signal of -0.0431 E-score. GCCCTGCA gave a binding signal of -0.0628 E-score. TATCAGGA was tested, and the binding signal was 0.397 E-score. With CCACGGGC the binding signal was -0.178 E-score. With ACAGCAGC the binding signal was -0.289 E-score. For AGGGGCTG, the binding signal was 0.103 E-score. With CATGGCGG the binding signal was -0.054 E-score. Sequence CGCCAGTA has a binding signal of 0.106 E-score. ATCCGTCC gave a binding signal of 0.246 E-score. AGCGCTAT was tested, and the binding signal was 0.0782 E-score. Work on AGAACCGG yielded a binding signal of -0.0269 E-score. For ACTTAACC, the binding signal was -0.185 E-score. With ACCCGTCC the binding signal was -0.0685 E-score. With TGTTAACA the binding signal was -0.0744 E-score. ATGGACAG showed a binding signal of 0.0136 E-score. With ATCGACTG the binding signal was -0.0117 E-score. Sequence AAACGCTC has a binding signal of -0.254 E-score. CTCGAGTA was tested, and the binding signal was 0.119 E-score. For AATCGAAT, the binding signal was -0.0704 E-score. Sequence AAGCACTC has a binding signal of -0.169 E-score. With AGGCATCG the binding signal was 0.0568 E-score. CAACCCTC gave a binding signal of -0.0998 E-score. For AAGCAGAG, the binding signal was -0.272 E-score. AAACCGAC showed a binding signal of 0.0431 E-score. With GTCCCCAC the binding signal was -0.231 E-score. CCCGTCTA gave a binding signal of 0.159 E-score. GCCGCCCA was tested, and the binding signal was -0.146 E-score. In the case of TTCGCAAA, the binding signal is reported as -0.148 E-score. For GAGCCTTA, the binding signal was -0.0917 E-score. ACGCTTTC was tested, and the binding signal was -0.291 E-score. For AACAACGA, the binding signal was -0.0207 E-score. CCGCACCC showed a binding signal of 0.0187 E-score. AGTCGACT showed a binding signal of -0.0443 E-score. Work on ACTTTAAA yielded a binding signal of -0.103 E-score. For CTGCTCCC, the binding signal was -0.0552 E-score. TCCGGGAA showed a binding signal of -0.0497 E-score. In the case of GAAGGGTC, the binding signal is reported as -0.217 E-score. CCTGCGAC was tested, and the binding signal was 0.0455 E-score. ACGCATGA showed a binding signal of -0.128 E-score. Work on TACAACGA yielded a binding signal of 0.00196 E-score. Work on GACGCGGC yielded a binding signal of -0.0248 E-score. For AATTGACA, the binding signal was 0.0335 E-score. GTTGGCCA was tested, and the binding signal was -0.268 E-score. AATACGGT showed a binding signal of 0.231 E-score. Sequence GATCCGGA has a binding signal of 0.405 E-score. AGCGATTA gave a binding signal of 0.00155 E-score. In the case of CCGTACAG, the binding signal is reported as -0.175 E-score. ATGGGGTG gave a binding signal of 0.123 E-score. For AGTGCGAC, the binding signal was -0.238 E-score. In the case of CCGCGCAA, the binding signal is reported as -0.105 E-score. AATTGCTG gave a binding signal of -0.276 E-score. For TCGTGAAA, the binding signal was -0.159 E-score. In the case of CCACAGCC, the binding signal is reported as -0.197 E-score. With AGTGCACG the binding signal was -0.215 E-score. Sequence CTTGCTAC has a binding signal of -0.0272 E-score. Sequence CGGTATAC has a binding signal of 0.393 E-score. For ACTTTTTG, the binding signal was -0.165 E-score. For CCCCGTCG, the binding signal was 0.0374 E-score. CCCCGGTA gave a binding signal of 0.182 E-score. For AAATATCA, the binding signal was 0.224 E-score. AAGCCGCT was tested, and the binding signal was -0.25 E-score. In the case of AATCGCGC, the binding signal is reported as -0.0898 E-score. For CCTTCAAG, the binding signal was -0.00369 E-score. Sequence AGGGCCTA has a binding signal of -0.136 E-score. AGGTTTAG showed a binding signal of -0.0499 E-score. CATTTGAG was tested, and the binding signal was -0.0247 E-score. With GATCAACA the binding signal was 0.281 E-score. Work on AATTATGG yielded a binding signal of 0.0156 E-score. CGCCCAGA was tested, and the binding signal was 0.0463 E-score. With CGAGAACC the binding signal was 0.0342 E-score. CCAGGTAA was tested, and the binding signal was -0.0129 E-score. CACCTCAG gave a binding signal of -0.0661 E-score. AAGTTGAG was tested, and the binding signal was -0.128 E-score. CGAAGGAA showed a binding signal of -0.23 E-score. GGCTTTAA gave a binding signal of -0.0524 E-score. GGCCAGTA gave a binding signal of -0.0536 E-score. With GCTGAGGA the binding signal was -0.0653 E-score. Work on AGTCGGCC yielded a binding signal of -0.228 E-score. AGACACAA gave a binding signal of 0.0103 E-score. In the case of CATAGTTC, the binding signal is reported as -0.264 E-score. CACTGTAA gave a binding signal of -0.0313 E-score. ATGTCTCG was tested, and the binding signal was 0.07 E-score. Sequence AACTCGCA has a binding signal of -0.216 E-score. For ATCCTCAT, the binding signal was 0.182 E-score. In the case of GCCAGTTA, the binding signal is reported as -0.048 E-score. GAATACGA gave a binding signal of 0.24 E-score. For TAACTGGA, the binding signal was -0.109 E-score. CTCGGGCA showed a binding signal of -0.026 E-score. In the case of CTTAGAAC, the binding signal is reported as -0.185 E-score. GCCCTGCC gave a binding signal of -0.113 E-score. GGAACCTA showed a binding signal of -0.0906 E-score. Work on AGAGATCA yielded a binding signal of 0.302 E-score. For AAGGCAAC, the binding signal was -0.0551 E-score. In the case of ACACCTTC, the binding signal is reported as 0.219 E-score. CATGGTCA was tested, and the binding signal was 0.0425 E-score. Work on ACTGCGCG yielded a binding signal of 0.0673 E-score. Work on ACTGGAAT yielded a binding signal of 0.00962 E-score. CACAAACA was tested, and the binding signal was -0.142 E-score. TCGCACGA gave a binding signal of 0.1 E-score. AGTCCGAG was tested, and the binding signal was -0.168 E-score. Sequence AATGTACT has a binding signal of -0.117 E-score. With CTTCCGTA the binding signal was 0.0242 E-score. Work on GAAGACTC yielded a binding signal of -0.198 E-score. In the case of ATATATGA, the binding signal is reported as 0.233 E-score. In the case of AAGATTGG, the binding signal is reported as -0.0837 E-score. For GAATGCGA, the binding signal was -0.0219 E-score. AGTTCGAT was tested, and the binding signal was 0.0731 E-score. Work on ACACGATA yielded a binding signal of 0.384 E-score. With GCCACGAC the binding signal was -0.23 E-score. AGACATTC showed a binding signal of 0.0407 E-score. Work on CGGCTGGA yielded a binding signal of 0.0427 E-score. CGGCTCCA was tested, and the binding signal was 0.0154 E-score. For CGTGGAGA, the binding signal was 0.063 E-score. Sequence GATTATTA has a binding signal of 0.209 E-score. AACGGTCG showed a binding signal of -0.048 E-score. ACGAGCTA gave a binding signal of -0.0166 E-score. In the case of GACTTGCC, the binding signal is reported as -0.176 E-score. With CAGCAGGC the binding signal was -0.158 E-score. AATCAGTG gave a binding signal of -0.0483 E-score. With AAGCGCCA the binding signal was -0.121 E-score. With AGCTAGTA the binding signal was -0.00123 E-score. With ACGTCAGC the binding signal was -0.123 E-score. AGACGAGA showed a binding signal of -0.0263 E-score. ACATTAAT was tested, and the binding signal was 0.0369 E-score. ATGATTTG was tested, and the binding signal was -0.0761 E-score. For CGTGCCAG, the binding signal was 0.0115 E-score. ATCACACA gave a binding signal of 0.266 E-score. CTGGAGCC gave a binding signal of -0.0758 E-score. Work on CGTATGTA yielded a binding signal of 0.11 E-score. GCTGACAC gave a binding signal of 0.246 E-score. AGGAAGTG was tested, and the binding signal was -0.0622 E-score. GACTAAGA was tested, and the binding signal was 0.0305 E-score. Sequence AAGTGCCG has a binding signal of -0.341 E-score. In the case of CTATAGTA, the binding signal is reported as 0.0613 E-score. For ACAAACCT, the binding signal was -0.0785 E-score. With TTGGTAAA the binding signal was -0.0398 E-score. With AAGGCTAA the binding signal was -0.17 E-score. With CCAAGAAC the binding signal was -0.183 E-score. Sequence ACATCCCC has a binding signal of 0.0721 E-score. In the case of CACTTTCC, the binding signal is reported as -0.131 E-score. GATCCGCC was tested, and the binding signal was 0.427 E-score. With GATTAAAC the binding signal was 0.0283 E-score. In the case of AAGCACGA, the binding signal is reported as -0.0229 E-score. For GCAGTTAA, the binding signal was -0.206 E-score. Sequence CACTAATC has a binding signal of 0.114 E-score. AAGCGTGA was tested, and the binding signal was -0.00283 E-score. In the case of CGTGATGC, the binding signal is reported as 0.0421 E-score. With AGTTCTAA the binding signal was -0.0676 E-score. ACCTTCGT was tested, and the binding signal was -0.119 E-score. Sequence AGCCTCAA has a binding signal of -0.106 E-score. TAAACATA gave a binding signal of -0.0782 E-score. For ACCATGGA, the binding signal was -0.0568 E-score. CTTGCACA gave a binding signal of -0.0504 E-score. For CCCGTGGA, the binding signal was 0.0342 E-score. With CCGAAGTA the binding signal was 0.088 E-score. With ACACTAAC the binding signal was -0.213 E-score. GCGCAACA was tested, and the binding signal was -0.143 E-score. With GGTTGCAA the binding signal was -0.134 E-score. Work on ACTTTCAC yielded a binding signal of -0.201 E-score. Sequence TGACGTAA has a binding signal of -0.153 E-score. Work on CGCGTGCC yielded a binding signal of -0.0626 E-score. Work on TCGTTGCA yielded a binding signal of -0.128 E-score. Sequence CCGACGCC has a binding signal of -0.0255 E-score. CTCGGCCA was tested, and the binding signal was -0.137 E-score. Sequence AATTCTTC has a binding signal of -0.276 E-score.
